Publication PMC9911399, “Two distinct binding modes provide the RNA-binding protein RbFox with extraordinary sequence specificity”
Numbering of substitutions follows the chain as printed; changes in the protein carry UniProt numbers. This is one part of the list.

B1: UUCACCG (DNA:RNA)
RNA: GGGAGACCGGAAUUCAGAUUGUCCUUCACCGUUAAAUCCCGUCGUAGCCACCA
DNA 1: CAATCTGAATTCCGGTCTCCC
DNA 2: TGGTGGCTACGACGGGATT
B2: UUGGCUG (DNA:RNA)
RNA: B1 RNA with C27G, A28G, C30U
DNA 1: CAATCTGAATTCCGGTCTCCC
DNA 2: TGGTGGCTACGACGGGATT
B3: CGCUAAC (DNA:RNA)
RNA: B1 RNA with U25C, U26G, A28U, C29A, C30A, G31C
DNA 1: CAATCTGAATTCCGGTCTCCC
DNA 2: TGGTGGCTACGACGGGATT
B4: GAGGCCC (DNA:RNA)
RNA: B1 RNA with U25G, U26A, C27G, A28G, G31C
DNA 1: CAATCTGAATTCCGGTCTCCC
DNA 2: TGGTGGCTACGACGGGATT
B5: GUGUCUU (DNA:RNA)
RNA: B1 RNA with U25G, C27G, A28U, C30U, G31U
DNA 1: CAATCTGAATTCCGGTCTCCC
DNA 2: TGGTGGCTACGACGGGATT
B6: GUCCCGG (DNA:RNA)
RNA: B1 RNA with U25G, A28C, C30G
DNA 1: CAATCTGAATTCCGGTCTCCC
DNA 2: TGGTGGCTACGACGGGATT
B7: CAAUUCA (DNA:RNA)
RNA: B1 RNA with U25C, U26A, C27A, A28U, C29U, G31A
DNA 1: CAATCTGAATTCCGGTCTCCC
DNA 2: TGGTGGCTACGACGGGATT
B8: GCAAUGA (DNA:RNA)
RNA: B1 RNA with U25G, U26C, C27A, C29U, C30G, G31A
DNA 1: CAATCTGAATTCCGGTCTCCC
DNA 2: TGGTGGCTACGACGGGATT
B9: ACUUACA (DNA:RNA)
RNA: B1 RNA with U25A, U26C, C27U, A28U, C29A, G31A
DNA 1: CAATCTGAATTCCGGTCTCCC
DNA 2: TGGTGGCTACGACGGGATT
B10: UCGGACC (DNA:RNA)
RNA: B1 RNA with U26C, C27G, A28G, C29A, G31C
DNA 1: CAATCTGAATTCCGGTCTCCC
DNA 2: TGGTGGCTACGACGGGATT
B11: GCUCGAC (DNA:RNA)
RNA: GGGAGACCGGAAUUCAGAUUGUCCGCUCGACUUAAAUCCCGUCGUAGCCACCA
DNA 1: CAATCTGAATTCCGGTCTCCC
DNA 2: TGGTGGCTACGACGGGATT
B12: CUCUGAC (DNA:RNA)
RNA: B11 RNA with G25C, C26U, U27C, C28U
DNA 1: CAATCTGAATTCCGGTCTCCC
DNA 2: TGGTGGCTACGACGGGATT
B13: GUUCCAC (DNA:RNA)
RNA: B11 RNA with C26U, G29C
DNA 1: CAATCTGAATTCCGGTCTCCC
DNA 2: TGGTGGCTACGACGGGATT
B14: CGAGAGG (DNA:RNA)
RNA: B1 RNA with U25C, U26G, C27A, A28G, C29A, C30G
DNA 1: CAATCTGAATTCCGGTCTCCC
DNA 2: TGGTGGCTACGACGGGATT
B15: GGCAUAG (DNA:RNA)
RNA: B1 RNA with U25G, U26G, C29U, C30A
DNA 1: CAATCTGAATTCCGGTCTCCC
DNA 2: TGGTGGCTACGACGGGATT
B16: GGACGAU (DNA:RNA)
RNA: B11 RNA with C26G, U27A, C31U
DNA 1: CAATCTGAATTCCGGTCTCCC
DNA 2: TGGTGGCTACGACGGGATT
B17: GUAUUGC (DNA:RNA)
RNA: B11 RNA with C26U, U27A, C28U, G29U, A30G
DNA 1: CAATCTGAATTCCGGTCTCCC
DNA 2: TGGTGGCTACGACGGGATT
B18: CGGUUAC (DNA:RNA)
RNA: B11 RNA with G25C, C26G, U27G, C28U, G29U
DNA 1: CAATCTGAATTCCGGTCTCCC
DNA 2: TGGTGGCTACGACGGGATT
B19: CUACCCU (DNA:RNA)
RNA: B1 RNA with U25C, C27A, A28C, G31U
DNA 1: CAATCTGAATTCCGGTCTCCC
DNA 2: TGGTGGCTACGACGGGATT
B20: AAUCUCA (DNA:RNA)
RNA: B11 RNA with G25A, C26A, G29U, A30C, C31A
DNA 1: CAATCTGAATTCCGGTCTCCC
DNA 2: TGGTGGCTACGACGGGATT

Each binder was assayed against T1, RBFOX1 RRM (Homo sapiens, UniProt Q9NWB1 109-208) (assay: EMSA; HiTS-Eq, 1 nM pool, 10 min; buffer printed only for the single-RNA assays: 10 mM Tris pH 7.5, 150 mM NaCl, 3.4 mM EDTA, 0.001% NP-40, 30 C). Settings: tags: His6 N-terminal (pET28a); label: 5' 32P.
T1 sequence: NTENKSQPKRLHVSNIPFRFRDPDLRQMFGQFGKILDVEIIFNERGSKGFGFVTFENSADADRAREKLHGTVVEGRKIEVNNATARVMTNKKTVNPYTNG
Outline: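 Purified RbFox RRM (wild type or mutant) was equilibrated for 10 min in 50 µL with 1 nM of a 5′-radiolabelled pool of RNA with 7 randomized nucleotides, its flanks annealed to DNA oligonucleotides, across increasing protein concentrations. Free RNA was separated by 8% native PAGE, excised, reverse-transcribed, PCR-barcoded and sequenced on an Illumina HiSeq 2500. Relative association constants came from read-count changes of each variant against the control reaction, normalised to the cognate motif.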

Binder | binding signal
B1 | 0.0049 KA relative to UGCAUGU
B2 | 0.0406 KA relative to UGCAUGU
B3 | 0.00699 KA relative to UGCAUGU
B4 | 0.0156 KA relative to UGCAUGU
B5 | 0.0173 KA relative to UGCAUGU
B6 | 0.0188 KA relative to UGCAUGU
B7 | 0.00106 KA relative to UGCAUGU
B8 | 0.0139 KA relative to UGCAUGU
B9 | 0.00166 KA relative to UGCAUGU
B10 | 0.00331 KA relative to UGCAUGU
B11 | 0.0209 KA relative to UGCAUGU
B12 | 0.0116 KA relative to UGCAUGU
B13 | 0.00677 KA relative to UGCAUGU
B14 | 0.00736 KA relative to UGCAUGU
B15 | 0.0112 KA relative to UGCAUGU
B16 | 0.02 KA relative to UGCAUGU
B17 | 0.0151 KA relative to UGCAUGU
B18 | 0.0112 KA relative to UGCAUGU
B19 | 0.00216 KA relative to UGCAUGU
B20 | 0.00445 KA relative to UGCAUGU
